In PubChem BioAssay AID1159614 (National Center for Advancing Translational Sciences (NCATS), 2016):
Among all 45,000 compounds or so, about 65 (0.1%) were called active. Calls come from the whole dose curve; as a rule, active = well fitted activation curve with a large enough effect; inconclusive = small, poorly fitted or top-dose-only effect; inactive = no such curve, though single readings can be large or run the other way. This is one part of the list.

Target: Galactocerebrosidase (Homo sapiens) (UniProt P54803)
Assay: A Novel Cell-Based Assay to Identify Small Molecules for B -Galactocerebrosidase; note: 0% is about no effect; nearly all actives have a fitted effect of over 65% in size
Conditions: 145M-Twi-hGALC-G270D cells (Twitcher mouse brain line with human GALC G270D), HMU-beta-Gal fluorescence, 48 h; series mostly up to 57.5 µM; activation: at the top concentration
Summary of the method: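 Brain-derived Twitcher mouse 145M-Twi cells stably expressing human GALC-G270D or wild-type GALC, treated live, then residual GALC activity read by fluorescence of HMU-b-Gal substrate (0.1 mM final) in citrate-phosphate buffer pH 5.2 with sodium taurocholate. Signal increase indicates enhancement.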

Sequence of UniProt P54803 (P54803 whole entry, looked up): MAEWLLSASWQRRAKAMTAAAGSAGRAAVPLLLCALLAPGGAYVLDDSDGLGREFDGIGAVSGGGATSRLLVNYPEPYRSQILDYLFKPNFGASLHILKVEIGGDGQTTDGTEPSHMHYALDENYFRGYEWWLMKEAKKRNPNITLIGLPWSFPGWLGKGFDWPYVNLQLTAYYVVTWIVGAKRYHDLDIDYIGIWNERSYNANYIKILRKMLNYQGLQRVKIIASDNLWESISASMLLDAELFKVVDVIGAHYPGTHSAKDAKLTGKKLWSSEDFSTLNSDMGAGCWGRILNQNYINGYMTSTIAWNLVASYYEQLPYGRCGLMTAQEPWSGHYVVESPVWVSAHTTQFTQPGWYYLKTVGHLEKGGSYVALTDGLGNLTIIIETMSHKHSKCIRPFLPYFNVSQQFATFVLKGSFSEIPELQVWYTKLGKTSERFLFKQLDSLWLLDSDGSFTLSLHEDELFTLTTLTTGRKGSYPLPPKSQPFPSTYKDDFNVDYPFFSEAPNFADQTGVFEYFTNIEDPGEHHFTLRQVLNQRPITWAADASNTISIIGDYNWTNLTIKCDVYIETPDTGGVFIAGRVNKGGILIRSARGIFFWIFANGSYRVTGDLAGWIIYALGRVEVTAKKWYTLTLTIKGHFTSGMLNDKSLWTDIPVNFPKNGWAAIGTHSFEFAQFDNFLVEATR

activation, inactive:
CCOC(=O)N1CCC(NC(=O)c2ccc3c(c2)N(Cc2ccc(F)cc2)C(=O)c2ccccc2S3(=O)=O)CC1 7.07%
CCOc1ccccc1NC(=O)c1nnn(CC(=O)Nc2ccc(OC)c(OC)c2)c1N -10.8%
O=C(CSc1nc2ccccc2nc1Cc1ccc(Cl)cc1)NCCc1ccccc1 -17.5%
CCOc1ccc(NC(=O)C(NS(=O)(=O)c2ccc3c(c2)CCN3C(C)=O)C(C)C)cc1 (stereo not drawn) 15.4%
CCCCC(=O)Nc1ccc2nc(SCC(=O)N3CCCC3)sc2c1 -17.2%
COc1ccccc1-c1cc(C(=O)N2CCCCC2C)no1 (stereo not drawn) -9.88%
Cc1ccc(C)c(N2CCN(Cc3csc(C)c3C)CC2)c1 0.875%
COc1ccc(CNC(=O)c2nn(-c3ccccc3C)nc2CO)cc1 -11.2%
Nc1c(-c2nc(-c3cccs3)no2)nnn1-c1cccc(Cl)c1 -8.22%
COc1ccc(OC)c(C(C)NC(=O)Cn2c(=O)cc(C)c3c(C)nn(-c4ccc(C)cc4)c32)c1 (stereo not drawn) -1.77%
CCOc1ccccc1CC1C(=O)Nc2ccc(Br)cc21 (stereo not drawn) -7.13%
COc1cccc(CNC(=O)C(NS(=O)(=O)c2ccc3c(c2)CCN3C(C)=O)C(C)C)c1 (stereo not drawn) -1.94%
CCc1ccc(Nc2ncnc3c2cnn3-c2cc(Cl)ccc2C)cc1 -19.3%
COC(=O)c1ccc(Cn2c(=O)cc(C(F)(F)F)c3c(C)nn(C)c32)cc1 -2.94%
CCCn1c2ccccc2c2cnn(CC(=O)NCCc3ccccc3)c(=O)c21 -6.69%
CCn1cc(C(=O)OCC(=O)Nc2ccc(F)cc2F)c(=O)c2ccc(C)nc21 4.26%
Cc1cccc(-c2nc(Cn3c(=O)cc(-c4ccccc4)c4c(C)nn(C)c43)c(C)o2)c1 -16.8%
Cc1cc(N2CCCCC2)nc2ccc(NC(=O)/C=C/c3ccccc3Cl)cc12 -12.8%
Cc1ccccc1Cn1c(=O)n(CCc2ccccc2)c(=O)c2ccccc21 6.86%
CCOc1ccc(S(=O)(=O)N(CC(=O)NCCSc2ccccc2)c2ccccc2)cc1 -9.35%
CCN(c1ccc(OC)cc1)S(=O)(=O)c1ccc2[nH]c(=O)ccc2c1 -12.4%
O=C(NCc1ccc(Cl)cc1)C1CCCN(c2nc3ccccc3n3cccc23)C1 (stereo not drawn) -9.41%
O=C(Cn1c2ncccc2c(=O)n1-c1ccccc1)Nc1ccc(F)c(F)c1 -0.502%
CCCCOc1cccc(NC(=O)CSc2nnc(C)s2)c1 -41.9%
Cc1cc(Nc2cccc(C(F)(F)F)c2)nc2ccc(NC(=O)c3ccc(=O)[nH]c3)cc12 -5.66%
O=C(NCc1ccc(F)cc1)c1c(O)nc2ccccn2c1=O -13%
CN(Cc1ccccc1)c1ncnc2onc(-c3ccc(F)cc3)c12 -27.7%
O=C(COc1ccccc1)Nc1nnc(S(=O)(=O)N2CCCC2)s1 5.78%
CCOc1ccc(-n2c(=O)c3c4c(sc3n(CC(=O)Nc3cccc(C(F)(F)F)c3)c2=O)CCCCC4)cc1 -22.6%
COc1ccccc1NC(=O)C(Cc1ccccc1)NS(=O)(=O)c1ccc2c(c1)c(=O)n(C)c(=O)n2C (stereo not drawn) -0.926%
O=C(OCC1CCCO1)c1ccc2c(c1)N(Cc1ccccc1Cl)C(=O)c1ccccc1S2(=O)=O (stereo not drawn) -11%
O=C(Nc1ccc2oc(-c3ccc4ccccc4c3)nc2c1)c1ccccc1F -8.78%
CC(NC(=O)CCNS(=O)(=O)c1cccc2nsnc12)c1ccccc1 (stereo not drawn) -9.5%
O=C(Nc1cccc(Cl)c1)c1cnc[nH]1 -5.66%
COc1ccc(Br)cc1C1Sc2ccccc2NC2=C1C(=O)c1ccccc12 (stereo not drawn) -1.99%
Cc1ccc2c(=O)cc(CSCC(=O)Nc3nnc(C)s3)[nH]c2c1 -3.12%
COc1ccc(OC)c(NC(=O)CSc2nc3ccccc3nc2N2CCCCC2)c1 -20.2%
COc1ccc(NC(=O)C2CCC(CNS(=O)(=O)c3ccc(Br)s3)CC2)cc1OC (stereo not drawn) -3.98%
CCCC(=O)OCc1cnc(C)c2oc(=O)c(C(=O)Nc3ccccc3)cc12 -7.63%
O=C(Nc1ccccc1)c1ccc(Br)c(S(=O)(=O)N2CCCCC2)c1 1.59%
COc1ccc(NC(=O)COc2ccc(S(=O)(=O)NC3CCCCC3)cc2)cc1OC -12.1%
COc1cc(Cl)c(C)cc1NC(=O)Cn1ncc2c([nH]c3ccccc32)c1=O 2.04%
COc1cccc(C(c2c(O)cc(C)n(Cc3ccco3)c2=O)N2CCN(c3ccccc3)CC2)c1 (stereo not drawn) -25.6%
O=C(CSc1nccn1Cc1ccc(Cl)cc1)Nc1ccc2c(c1)OCCO2 -14.4%
CCOCCCn1c(SCC(=O)Nc2ccc(C)cc2)nc2ccccc2c1=O -3.19%
CCc1ccccc1NC(=O)c1ccc2c(c1)N(Cc1cc(C)ccc1C)C(=O)c1ccccc1S2(=O)=O -5.48%
Cc1cc(C)n(C(C)CC(=O)NCc2ccc(N(C)C)cc2)n1 (stereo not drawn) -16%
COC(=O)c1cc2sccc2n1Cc1nc(-c2ccc(Cl)cc2)oc1C -10.9%
Cc1cc(C)c(NC(=O)C2CCN(c3nnc(C)c4c(C)n(-c5ccccc5)nc34)CC2)c(C)c1 -14.6%
COc1ccccc1NC(=O)C1=C(C)Nc2nc(SCc3ccccc3C)nn2C1CC(C)C (stereo not drawn) -18.1%
CC(C(=O)O)c1ccc2c(c1)Cc1cccnc1O2 (stereo not drawn) -12.3%
CCc1ccc2oc(C(=O)Nc3nonc3CC)c(C)c2c1 -25.1%
Cc1cc(C)cc(NS(=O)(=O)c2ccc3c(c2)CCCN3C(=O)C2CCC2)c1 12.1%
COc1ccc(-n2ncc(C(=O)N3CCc4ccccc4C3)c2C2CCN(C(=O)OC(C)(C)C)CC2)cc1 4%
Cc1oc2ncn(C)c(=O)c2c1C(=O)NCCCN1CCCC(C)C1 (stereo not drawn) -1.6%
O=C(Nc1ccc(Br)cc1F)c1ncoc1-c1ccco1 -5.79%
C[C@H]1COc2c(C3(N)CC3)c(F)cc3c(=O)c(C(=O)O)cn1c23 -26.8%
O=C(CN1C(=O)COc2ccc(S(=O)(=O)N3CCOCC3)cc21)N1CCN(c2ccccc2)CC1 -11.3%
COCCCNC(=O)c1ccc2c(=O)n(Cc3ccc(OC)cc3)c(=O)[nH]c2c1 -8.95%
COc1ccc(CNC(=O)CN(c2cc(C)cc(C)c2)S(=O)(=O)c2c(C)[nH]c(=O)[nH]c2=O)cc1 -6.09%
COc1ccc(-c2cc(C(F)(F)F)n3nc(C(=O)NCC45CC6CC(CC(C6)C4)C5)cc3n2)cc1 -8.8%
CCOc1cc(-c2nc(-c3ccc(Br)cc3)no2)cc(OCC)c1OCC 2.24%
O=C(COc1ccccc1)N(Cc1cccnc1)c1nc2ccc(F)cc2s1 -13.9%
Cc1cccc(CN2CCN(CC(=O)NCc3ccc(Cl)cc3)C2=O)c1 -1.88%
COc1ccc(C2=C(C)C(=O)N(Cc3ccc(C(=O)NCc4ccc(C)cc4)cc3)S2(=O)=O)cc1 0.0198%
CC(C)(C)C(=O)Oc1ccc(S(=O)(=O)Nc2ccccc2C(=O)NCC(=O)O)cc1 -16.8%
CCOC(=O)c1c(NC(=O)c2cc(C(C)C)on2)sc(C)c1C -6.92%
Cc1ccc(S(=O)(=O)C(CNC(=O)c2ccccc2F)c2cccs2)cc1 (stereo not drawn) -7.59%
Cc1cccc(CSc2nc3c(c(=O)[nH]2)C(c2cccc(O)c2)CC(=O)N3)c1 (stereo not drawn) -12.4%
CSc1ccc2c(c1)C(N1CCN(C)CC1)Cc1ccccc1S2 (stereo not drawn) -7.6%
Cc1nc(-c2ccc(C)c(S(=O)(=O)N3CCC(C(=O)NCc4ccc(Cl)cc4)CC3)c2)no1 5.87%
COc1ccc(CCNC(=O)C2CCCN(c3nc4c(C)cc(C)cc4s3)C2)cc1OC (stereo not drawn) -19.4%
O=c1c(N2CCc3ccccc3C2)csc2ccccc12 -13%
O=C(NCCc1ccccc1)c1ccc2c(c1)N(Cc1ccccc1F)C(=O)c1ccccc1S2=O (stereo not drawn) -6.25%
CC(=O)Nc1ccc(NC(=O)c2oc3ccc4c(c3c2C)C(=O)CC(C)(C)O4)cc1 -12.6%
COc1ccc(NC(=O)c2ccc3c(=O)n4nc(Nc5cccc(Cl)c5C)sc4nc3c2)cc1 -4.82%
CC(=O)N1CCCc2cc(S(=O)(=O)N3CCCC(C(=O)Nc4cc(Cl)ccc4C)C3)ccc21 (stereo not drawn) -21.6%
C=Cc1ccc(Cn2c(C(=O)O)c(CNCc3ccccc3)c3ccc(C)cc32)cc1 -13.1%
CC1=C(C(=O)Nc2cccnc2)C(c2ccccc2)n2nc(-c3ccc(O)cc3)nc2N1 (stereo not drawn) -6.52%
Cc1ccc(C2CCN(C(=O)c3cnn(-c4ccc(C)cc4)c3C3CCN(C(=O)OC(C)(C)C)CC3)C2)cc1 (stereo not drawn) -5.68%
Cc1ccc(-c2ccc(=O)n(CC(=O)Nc3cccc(C#N)c3)n2)cc1 -18%
O=C(C1CCCN(S(=O)(=O)c2ccc(Br)s2)C1)N1CCN(c2ccccc2)CC1 (stereo not drawn) -8.76%
CNC(=O)C1CCC(Cn2c(=O)c3sccc3n(CC(=O)NCc3ccc(F)cc3)c2=O)CC1 (stereo not drawn) -11.5%
CCOc1ccc(-c2nc3c(c(SCC(=O)N4CCCCC4)n2)Cc2ccccc2O3)cc1 -15.8%
CCOc1ccccc1NS(=O)(=O)c1ccc(-c2cnc(C3CC3)o2)cc1 -30.4%
CCCCCCCCCCCCCCCCN -5.68%
Cc1ccc(-c2csc(=Nc3ccc(F)cc3)n2Cc2ccc3c(c2)OCO3)cc1C -36.7%
Cc1c(Cl)cccc1NC(=O)c1ncn(-c2ccccc2)n1 -4.21%
COc1cccc(NC(=O)CC(C)S(=O)(=O)c2ccc3c(c2)NC(=O)CO3)c1 (stereo not drawn) -16.8%
Cc1ccc(NS(=O)(=O)c2ccc3c(c2)CCCN3C(=O)C2CCC2)cc1Cl -3.68%
CCOC(=O)C(=O)CCCCCCl -14.6%
Nc1c(C(=O)Nc2ccc(C(=O)O)cc2)sc2nc3c(cc12)CCCC3 -26%
Cc1cccc(C(=O)Nc2nnc(S(=O)(=O)N(C)Cc3ccco3)s2)c1 -25.8%
COc1ccc(CCNC(=O)CSc2nc(-c3ccc(F)cc3)cc(C(F)(F)F)n2)cc1OC 1.95%
Cc1nn(-c2ccccc2)c2sc(C(=O)Nc3ccccc3Br)cc12 -9%
CCCN1C[C@H](CSC)C[C@@H]2c3cccc4[nH]cc(c34)C[C@H]21 -13.1%
Cc1ccc(NC(=O)CN2C(=O)C3(SCC(=O)N3c3cccc(Cl)c3)c3ccccc32)cc1C (stereo not drawn) -17.4%
O=C1OC2(c3ccccc31)c1cc(I)c(O)c(I)c1Oc1c2cc(I)c(O)c1I -12.5%
